According to the supplement of paper PMC7125110:
± gives the standard error. Variants at the floor of the assay are shown more often than the library holds them.

B1: glmS ribozyme (parent)
chain: AUAAAAGCGCCAGAACUACAGAAAUGUAGUUGACGAGGAGGAGGUUUAUCGAAUUUUCGGCGGAUGCCUCCAAA

Columns and labels:
Conditions in all cases: with glucosamine-6-phosphate
[1] = variants of: B1; assay: self-cleavage kobs at 640 uM GlcN6P; higher = faster cleavage; RNA array
How it was run: (§1)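 Ribozyme variants carrying barcodes were transcribed in situ on sequenced MiSeq chips by E. coli RNA polymerase and tracked at 37 °C with a hybridised Cy3 probe. They were exposed to 40 μM to 10 mM glucosamine-6-phosphate in HEPES/KCl/Mg(OAc)2 buffer. kobs came from exponential decay fits of normalised per-tile medians, and kcat and KM from weighted Michaelis–Menten fits.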

[2] = variants of: B1; assay: self-cleavage kobs at 2500 uM GlcN6P; higher = faster cleavage; RNA array
How it was run: as §1

[3] = variants of: B1; assay: self-cleavage kobs at 160 uM GlcN6P; higher = faster cleavage; RNA array
How it was run: as §1

[4] = variants of: B1; assay: self-cleavage kobs at 10000 uM GlcN6P; higher = faster cleavage; RNA array
How it was run: as §1

Variant: AUAAAAGCGCCAGAACUACAGAAAUGUAGUUGACGAGGAGGAGGUUUAUCCAUUUUUCCGCGGAUGCCUCCAAA
- self-cleavage kobs at 640 uM GlcN6P [1]: < 1e-05 s⁻¹
- self-cleavage kobs at 2500 uM GlcN6P [2]: < 1e-05 s⁻¹

Variant: AUAAAAGCGCCAGAACUACAGAAAUGUAGUUGACGAGGAGGAGGUUUAUCCAAUUUUAGGCGGAUGCCUCCAAA
- self-cleavage kobs at 640 uM GlcN6P [1]: < 1e-05 s⁻¹
- self-cleavage kobs at 160 uM GlcN6P [3]: < 1e-05 s⁻¹
- self-cleavage kobs at 2500 uM GlcN6P [2]: < 1e-05 s⁻¹

Variant: AUAAAAGCGCCAGAACUACAGAAAUGUAGUUGACGAGGAGGAGGUUUAUCCAAUUUUCCCCGGAUACCUCCAAA
- self-cleavage kobs at 640 uM GlcN6P [1]: < 1e-05 s⁻¹
- self-cleavage kobs at 160 uM GlcN6P [3]: < 1e-05 s⁻¹
- self-cleavage kobs at 2500 uM GlcN6P [2]: < 1e-05 s⁻¹

Variant: AUAAAAGCGCCAGAACUACAGAAAUGUAGUUGACGAGGAGGAGGUUUAUCCAAAUUACGGCGGAUGCCUCCAAA
- self-cleavage kobs at 640 uM GlcN6P [1]: < 1e-05 s⁻¹
- self-cleavage kobs at 2500 uM GlcN6P [2]: < 1e-05 s⁻¹

Variant: AUAAAAGCGCCAGAACUACAGAAAUGUAGUUGACGAGGAGGAGGUUUAUCCAAUUUACGGCGGAUGCCUCCAAA
- self-cleavage kobs at 640 uM GlcN6P [1]: < 1e-05 s⁻¹
- self-cleavage kobs at 10000 uM GlcN6P [4]: < 1e-05 s⁻¹

Variant: AUAAAAGCGCCAGAACUACAGAAAUGUAGUUGACGAGGAGGAGGUUUAUCCAAUUUCCGGCGGAUGCCUCCAAA
- self-cleavage kobs at 640 uM GlcN6P [1]: < 1e-05 s⁻¹
- self-cleavage kobs at 160 uM GlcN6P [3]: < 1e-05 s⁻¹
- self-cleavage kobs at 2500 uM GlcN6P [2]: < 1e-05 s⁻¹
- self-cleavage kobs at 10000 uM GlcN6P [4]: < 1e-05 s⁻¹

Variant: AUAAAAGCGCCAGAACUACAGAAAUGUAGUUGACGAGGAGGAGGUUUAUCCAAUUUUCGGCGGAGGCCUCCAAA
- self-cleavage kobs at 640 uM GlcN6P [1]: < 1e-05 s⁻¹
- self-cleavage kobs at 160 uM GlcN6P [3]: < 1e-05 s⁻¹
- self-cleavage kobs at 2500 uM GlcN6P [2]: < 1e-05 s⁻¹

Variant: AUAAAAGCGCCAGAACUACAGAAAUGUAGUUGACGAGGAGGAGGUUUAUCUAAUUUUCGGCUGAUGCCUUCAAA
- self-cleavage kobs at 640 uM GlcN6P [1]: < 1e-05 s⁻¹

Variant: AUAAAAGCGCCAGAACUACAGAAAUGUAGUUGACGAGGAGGAGGUUUAUCGCAUUUUUGGCGGAUGCCUCCAAA
- self-cleavage kobs at 640 uM GlcN6P [1]: < 1e-05 s⁻¹
- self-cleavage kobs at 160 uM GlcN6P [3]: < 1e-05 s⁻¹
- self-cleavage kobs at 10000 uM GlcN6P [4]: < 1e-05 s⁻¹

Variant: AUAAAAGCGCCAGAACUACAGAAAUGUAGUUGACGAGGAGGAGGUUUAUCGCAUCUUCUGCGGAUGCCUCCAAA
- self-cleavage kobs at 640 uM GlcN6P [1]: < 1e-05 s⁻¹

Variant: AUAAAAGCGCCAGAACUACAGAAAUGUAGUUGACGAGGAGGAGGUUUAUCGGUUUUUCGGCGGAUGCCUCCAAA
- self-cleavage kobs at 640 uM GlcN6P [1]: 6.4e-05 ± 1.5e-05 s⁻¹
- self-cleavage kobs at 2500 uM GlcN6P [2]: 0.000176 ± 3.4e-05 s⁻¹
- self-cleavage kobs at 10000 uM GlcN6P [4]: 0.000219 ± 2.3e-05 s⁻¹

Variant: AUAAAAGCGCCAGAACUACAGAAAUGUAGUUGACGAGGAGGAGGUUUAUCGGAUUUUCGGCGGAUUCCUCCAAA
- self-cleavage kobs at 640 uM GlcN6P [1]: 2.89e-05 ± 1.1e-05 s⁻¹
- self-cleavage kobs at 2500 uM GlcN6P [2]: 6.2e-05 ± 1.6e-05 s⁻¹
- self-cleavage kobs at 10000 uM GlcN6P [4]: 0.00013 ± 1.5e-05 s⁻¹

Variant: AUAAAAGCGCCAGAACUACAGAAAUGUAGUUGACGAGGAGGAGGUUUAUCGGAUUGUCGGCGGAUGCCUCCAAA
- self-cleavage kobs at 640 uM GlcN6P [1]: 0.000309 ± 5.9e-05 s⁻¹
- self-cleavage kobs at 2500 uM GlcN6P [2]: 0.000536 ± 0.00011 s⁻¹
- self-cleavage kobs at 10000 uM GlcN6P [4]: 0.0014 ± 0.00025 s⁻¹

Variant: AUAAAAGCGCCAGAACUACAGAAAUGUAGUUGACGAGGAGGAGGUUUAUCGGAUUUCCGGCGGAUGCCUCCAAA
- self-cleavage kobs at 640 uM GlcN6P [1]: 9.94e-05 ± 1e-05 s⁻¹
- self-cleavage kobs at 160 uM GlcN6P [3]: 2.83e-05 ± 1.3e-05 s⁻¹
- self-cleavage kobs at 2500 uM GlcN6P [2]: 0.000227 ± 3.1e-05 s⁻¹
- self-cleavage kobs at 10000 uM GlcN6P [4]: 0.000314 ± 4.4e-05 s⁻¹
